# The supplement of paper PMC10126150
# Sequences with one replicate were seen in a single cluster, so their values are uncertain.
# System: ATP
# Assay: switch fluorescence ratio, 500 uM ATP over buffer (Cy3 cluster intensity, sum of 5 cycles each) (fold (ratio)); higher = stronger signal-on switching upon ATP binding; sequences stand for … in TCGTCGGCAGCGTCAGATGTGTATAAGAGACAGTTTTTTTTTTTTTTTTTTTTTTTTT…TC
# Settings: aptamer strand: ATP DNA aptamer (quencher-CACCTGGGGGAGTATTGCGGAGGAAGG + anchor), 100 nM annealed; ATP concentration: 500 uM; one replicate
# Procedure, shortened: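 Cy3-labelled switching-strand clusters on a modified Illumina MiSeq flow-cell were annealed to 100 nM quencher-labelled ATP aptamer and imaged first in selection buffer, then after 15 min with 500 uM ATP at 22 °C. NaOH stripping and re-annealing separated each of five buffer/ATP cycles, and clusters outside 100-1000 RFU were excluded. The fluorescence ratio sums target-cycle Cy3 intensity over buffer-cycle Cy3 intensity per cluster and averages it per switch-domain sequence.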
# 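Note: ATP exposure 15 min at 22 °C before imaging.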
row,Sequence,switch fluorescence ratio
1,GTTCTGATGG,1.05
2,GTTCTGCGCA,1.1
3,GTTCTGGGAC,0.987
4,GTTCTTCGGG,0.972
5,GTTCTTCTCG,1.06
6,GTTCTTGTGC,0.954
7,GTTCTTGTTG,0.996
8,GTTCTTTAGC,1.02
9,GTTCTTTGTC,0.984
10,GTTGAAGCTT,0.971
11,GTTGACAGGT,0.979
12,GTTGACTTCC,2.03
13,GTTGAGACGT,1.02
14,GTTGAGCGAG,1.03
15,GTTGATTAAG,0.975
16,GTTGATTCCC,0.979
17,GTTGCAAGCG,0.943
18,GTTGCCAGGA,1.03
19,GTTGCCGATA,1.03
20,GTTGCGCAGG,1.04
21,GTTGCGCTT,0.964
22,GTTGCGGAAC,1
23,GTTGCGGCAG,0.981
24,GTTGCTAATA,0.975
25,GTTGCTATG,0.996
26,GTTGCTGTTA,1.02

row,Sequence,switch fluorescence ratio
1,GTTGCTTGTG,0.993
2,GTTGGAAAAG,1.01
3,GTTGGACCAC,0.995
4,GTTGGAGACG,0.965
5,GTTGGAGAGT,1
6,GTTGGCGTAG,1.03
7,GTTGGGAGAG,0.974
8,GTTGGGTTAC,1.48
9,GTTGGTAAGT,1.01
10,GTTGGTACCA,1
11,GTTGTAGCGA,1.1
12,GTTGTCACCT,1.06
13,GTTGTCAGG,0.986
14,GTTGTCCGTT,0.98
15,GTTGTTAGGC,1.04
16,GTTGTTAGTT,0.975
17,GTTGTTGTAA,0.965
18,GTTTAATTAT,0.974
19,GTTTACTGTG,1.04
20,GTTTAGAGTT,1.02
21,GTTTAGTCG,1.01
22,GTTTATAG,1.17
23,GTTTATTCCA,0.966
24,GTTTCACGTC,1.01
25,GTTTCCGCAG,2.61
26,GTTTCCGCTA,2.44

row,Sequence,switch fluorescence ratio
1,GTTTCCTTCT,1.17
2,GTTTCCTTGG,0.983
3,GTTTCTATAA,1.01
4,GTTTCTCAAA,1.02
5,GTTTCTTCTC,1
6,GTTTCTTGTT,1
7,GTTTGACATG,1.13
8,GTTTGATCTC,0.933
9,GTTTGCATGA,1.01
10,GTTTGCTCCA,0.988
11,GTTTGGAAAC,1.06
12,GTTTGGCGGC,1.13
13,GTTTGGTCCA,0.97
14,GTTTGGTGCG,0.99
15,GTTTGGTTAC,1.08
16,GTTTGTAATG,0.984
17,GTTTGTACAG,0.971
18,GTTTGTTATA,1.01
19,GTTTTAGAG,1.01
20,GTTTTAGTCG,0.98
21,GTTTTATCTA,1.02
22,GTTTTATGCC,1.01
23,GTTTTATGT,0.969
24,GTTTTCACAA,0.991
25,GTTTTCTTCC,1.1
26,GTTTTTGTG,1.06

row,Sequence,switch fluorescence ratio
1,GTTTTTTCCC,1.02
2,GTTTTTTGG,0.997
3,TAAAAAGCG,1
4,TAAAAAGGTT,0.952
5,TAAAAATTT,0.984
6,TAAAACATGC,1.15
7,TAAAACCCAG,1.05
8,TAAAACGCAT,1.34
9,TAAAACTGCT,0.973
10,TAAAAGGAGC,1.01
11,TAAAAGGTAG,0.95
12,TAAAATGCTC,1.16
13,TAAACAGGCA,0.998
14,TAAACAGGCT,1.05
15,TAAACAGTTG,1.02
16,TAAACCTTCT,3.4
17,TAAACGAGTT,1
18,TAAACGCTAA,1.18
19,TAAACGTCT,1.03
20,TAAACTCCTA,1.06
21,TAAACTCGAG,0.989
22,TAAACTGCTT,0.979
23,TAAACTGTGC,1
24,TAAAGACCAT,1.02
25,TAAAGACTTG,0.955
26,TAAAGAGCAA,1.48

row,Sequence,switch fluorescence ratio
1,TAAAGAGTTT,0.953
2,TAAAGATCAG,0.952
3,TAAAGCAAAG,1.09
4,TAAAGCCAGG,1.18
5,TAAAGCGAGA,1.02
6,TAAAGGATA,0.99
7,TAAAGGGCTG,1.05
8,TAAAGGGGC,1.09
9,TAAAGGGGCC,0.955
10,TAAATACTGT,1.07
11,TAAATAGCGC,0.995
12,TAAATATAAC,1.02
13,TAAATATT,0.983
14,TAAATCTAGG,0.991
15,TAAATGCGAG,1.01
16,TAAATGGCTG,0.998
17,TAAATGTAAA,0.997
18,TAAATGTTG,0.995
19,TAAATTGCT,1.02
20,TAAATTGG,1
21,TAAATTGTTG,0.992
22,TAAATTTCTG,1.01
23,TAACAATGTA,1.05
24,TAACAGACA,1.09
25,TAACAGCGTT,1.02
26,TAACAGGGGC,1.13

row,Sequence,switch fluorescence ratio
1,TAACAGGGTG,1.1
2,TAACATAAGG,1.01
3,TAACATATGC,1.02
4,TAACATGTGC,1.06
5,TAACATTGGC,0.938
6,TAACCGAAT,0.971
7,TAACCGCACG,1.59
8,TAACCGCAGT,1.68
9,TAACCGGGCC,1.09
10,TAACCTCC,2.38
11,TAACCTTTCC,3.3
12,TAACGACACA,1.55
13,TAACGCCGCG,1.06
14,TAACGCGGGA,0.877
15,TAACGCTTGC,1.16
16,TAACGGAAC,1.13
17,TAACGGAGA,0.986
18,TAACGTCCA,0.956
19,TAACGTG,0.934
20,TAACGTGAGC,1.12
21,TAACTAGAAA,1.01
22,TAACTATAGT,0.963
23,TAACTATGGA,0.96
24,TAACTCGTG,0.985
25,TAACTGGTAT,1.01
26,TAACTGTCTG,0.985

row,Sequence,switch fluorescence ratio
1,TAAGAAAATG,1.08
2,TAAGAAATTC,1
3,TAAGAAATTG,1.02
4,TAAGAAGAGG,0.993
5,TAAGAATA,0.998
6,TAAGACATGT,1.01
7,TAAGACGG,0.988
8,TAAGAGCAA,1.64
9,TAAGAGTGCG,0.994
10,TAAGAGTTG,0.963
11,TAAGATACCG,1.09
12,TAAGATAGTT,1.03
13,TAAGATCCGG,1.01
14,TAAGATGAAC,0.967
15,TAAGCAGTTC,1.38
16,TAAGCATTAA,1.01
17,TAAGCCATGA,1.03
18,TAAGCCCAAG,1.09
19,TAAGCGAATC,1.11
20,TAAGCGATAG,1.26
21,TAAGCGGGTT,1.01
22,TAAGCTGCTT,0.93
23,TAAGCTGTTC,1
24,TAAGCTTTGG,0.943
25,TAAGGAAATG,1.04
26,TAAGGAGAAA,0.971

row,Sequence,switch fluorescence ratio
1,TAAGGATTTC,0.951
2,TAAGGCATCT,1.03
3,TAAGGGACGC,1.04
4,TAAGGGAGGC,1.02
5,TAAGGGCACC,1.02
6,TAAGGGGCAC,0.987
7,TAAGGGGCCG,1.11
8,TAAGGTCAAC,0.948
9,TAAGGTCAGC,0.978
10,TAAGTAACCG,1.05
11,TAAGTAGTGT,0.956
12,TAAGTATGCA,0.968
13,TAAGTCGCCG,0.987
14,TAAGTCGCTC,0.951
15,TAAGTCTTTT,1.01
16,TAAGTGGAGC,1.01
17,TAAGTGTGT,1.02
18,TAAGTTGATT,0.988
19,TAATAACCA,0.969
